# In all, about 370,000 compounds went through this assay and about 150 (0.041%) were called active. The shares of active, inactive and inconclusive entries below differ from those in the screen. The call rests on the fitted dose curve; in most records, active means well fitted inhibition curve with a large enough effect; inconclusive means small, poorly fitted or top-dose-only effect; inactive means flat fitted curve, though single readings scatter. Potencies of inconclusive entries are left out as doubtful fits.
# Biological target: Beta-lactamase (Escherichia coli (strain K12)) (UniProt P00811)
# Chain of UniProt P00811 (P00811 whole entry, looked up): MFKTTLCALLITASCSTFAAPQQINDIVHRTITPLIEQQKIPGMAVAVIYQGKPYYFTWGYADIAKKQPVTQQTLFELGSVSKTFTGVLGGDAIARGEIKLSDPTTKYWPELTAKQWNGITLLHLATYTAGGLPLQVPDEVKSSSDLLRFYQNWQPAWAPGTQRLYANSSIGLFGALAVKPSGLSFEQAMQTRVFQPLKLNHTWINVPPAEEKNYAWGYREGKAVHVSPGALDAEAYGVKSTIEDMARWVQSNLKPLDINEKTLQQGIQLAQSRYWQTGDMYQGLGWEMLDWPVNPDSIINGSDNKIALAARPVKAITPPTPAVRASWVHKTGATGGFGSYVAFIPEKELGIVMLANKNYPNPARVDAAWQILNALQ
# Experiment: qHTS Inhibitors of AmpC Beta-Lactamase (assay with detergent); further: nearly all actives have a fitted effect of over 25% in size
# Conditions: AmpC hydrolysis of nitrocefin, absorbance 480 nm, 0.01% Triton; series mostly up to 114 µM
# In short: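 AmpC (5.3 nM in the dispensed reagent) in 20 mM phosphate pH 7.0 with 0.01% (detergent screen) or 0.0001% Triton X-100 was preincubated with compounds for 15 min at room temperature. Nitrocefin was then added from an 800 uM solution, and hydrolysis was followed at 480 nm.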
# Potency means the concentration at half of the fitted maximal effect; tags describe the fitted curve by direction and shape.
row,SMILES,Potency
1,Cc1c(C)[n+](=O)c2c(n1[O-])CCC2,"inconclusive [inhibitor, partial curve, poor fit]"
2,COc1ccc(N2C(=O)CC(n3cnc4ccccc43)C2=O)cc1 (configuration not stated),inactive
3,COC(=O)c1nn(-c2ccc(OC)cc2)c(=O)c2c(N)sc(C)c12,"inconclusive [inhibitor, full curve]"
4,COc1cc(NC(=O)c2cc([N+](=O)[O-])ccc2NC(=O)CNC2CCCCC2)cc(OC)c1,"inconclusive [inhibitor, full curve, poor fit]"
5,Cc1cccc(CS(=O)(=O)Cc2ccc(C(=O)NCCN3CCCCC3C)o2)c1 (configuration not stated),"inconclusive [inhibitor, full curve]"
6,Cc1[nH]nc2nc3c(c(OC(=O)c4ccccc4)c12)c(=O)n(C)c(=O)n3C,"inconclusive [inhibitor, full curve, poor fit]"
7,CC1CC(C)CN(C(=O)Cn2c(=O)n(CCCCC(=O)NC3CCCC3)c(=O)c3ccccc32)C1 (configuration not stated),"inconclusive [inhibitor, single point]"
8,CCOc1ccc2[nH]c(C)c(CN(C)C)c(=O)c2c1,"inconclusive [inhibitor, full curve, poor fit]"
9,O=S(=O)(Cc1cc(Sc2ccc(Cl)cc2)nc(-c2ccccc2)n1)c1ccccc1,inactive
10,COc1cccc(N2CCN(CC(=O)NCc3ccccc3)CC2)c1,"inconclusive [inhibitor, full curve]"
11,Cc1ccc(S(=O)(=O)n2ccc3c(OCCOCCSCC(NC(=O)OC(C)(C)C)C(=O)O)cccc32)cc1 (configuration not stated),inactive
12,CCc1nc(N2CCN(C(C)=O)CC2)c2c3c(sc2n1)CCCC3,"inconclusive [inhibitor, full curve]"
13,CCOC(=O)C1CCCN(CC(=O)NC2=Nc3ccccc3N=C(C)C2c2ccccc2)C1 (configuration not stated),inactive
14,CCCCC(=O)N(c1ccc(C(=O)O)cc1)c1nc(-c2ccc(Cl)cc2)c(CC)s1,inactive
15,Cc1sc(NC(=O)c2sc3nc4c(C)cccc4cc3c2N)c(C#N)c1C,inactive
16,COC(=O)/C=c1/s/c(=C(\C#N)C(=O)NCc2ccco2)n(-c2ccccc2)c1=O,"inconclusive [inhibitor, full curve, poor fit]"
17,NS(=O)(=O)c1ccc(CCNc2nc3c(-c4cccc(F)c4)nnn3c3ccccc23)cc1,"inconclusive [inhibitor, full curve]"
18,COCCNC(=O)C(NC(=O)C1CCCCC1)C(C)C (configuration not stated),"inconclusive [inhibitor, partial curve]"
19,CCOc1cccc(C(=O)Nc2ccc(-c3nc4cc(C)cc(C)c4o3)cc2)c1,inactive
20,Cc1ccccc1Cn1c(=O)n(CCC(=O)NCc2ccc3c(c2)OCO3)c(=O)c2ccccc21,"inconclusive [inhibitor, full curve, poor fit]"
21,CCc1ccccc1NC(=O)Cn1nnc(C(=O)Nc2ccc(OC)c(OC)c2)c1N,inactive

row,SMILES,Potency
1,CCCc1nc(SCC(N)=O)[nH]c(=O)c1CC,"inconclusive [inhibitor, full curve, poor fit]"
2,CCN(CC)S(=O)(=O)c1ccc(Cl)c(C(=O)NCC2CCCO2)c1 (configuration not stated),"inconclusive [inhibitor, partial curve, poor fit]"
3,Cc1scc(C(=O)NNC(=S)NCC2CCCO2)c1-c1ccccc1 (configuration not stated),"inconclusive [inhibitor, partial curve, poor fit]"
4,CCCCNC(=O)c1cc2c(=O)n(CC)c3ccccc3c2s1,inactive
5,CCN1CCN(C(CNS(=O)(=O)c2ccc(OC)cc2)c2cccnc2)CC1 (configuration not stated),"inconclusive [inhibitor, full curve]"
6,Cc1ccc(NC(=O)C(Cc2ccccc2)NC(=O)c2ccco2)cc1 (configuration not stated),"inconclusive [inhibitor, partial curve, poor fit]"
7,CC(C)c1ccc(-c2nc3c([nH]2)c(=O)n(C)c(=O)n3C)cc1,"inconclusive [inhibitor, full curve, poor fit]"
8,COc1ccccc1NC(=O)NCCN1C(=O)C2C3C=CC(C3)C2C1=O (configuration not stated),"inconclusive [inhibitor, full curve, poor fit]"
9,CCOC(=O)N1CCC(NC(=O)c2ccc(CS(=O)(=O)c3ccc(OC)cc3)o2)CC1,"inconclusive [inhibitor, full curve]"
10,COc1ccc(-c2ccc(-c3noc(-c4cc(OC)cc(OC)c4)n3)c(OC)n2)cc1,inactive
11,Cc1ccc(C(=O)N2CCN(c3ccc([N+](=O)[O-])c(NCc4ccco4)c3)CC2)cc1,inactive
12,Cc1cccc(NC(=O)CCc2nc3sc4c(c3c(=O)[nH]2)CCCC4)n1,"inconclusive [inhibitor, full curve]"
13,O=C(NCCOc1ccccc1Cl)C(=O)c1c[nH]c2ccccc12,"inconclusive [inhibitor, full curve, poor fit]"
14,C[C@@H]1CC2(CCCC[N+]2(C)C)C[C@H]1C,"inconclusive [inhibitor, single point]"
15,CCOP(=S)(OCC)SCC(=O)NC(C)(CC)C(=O)O (configuration not stated),"inconclusive [inhibitor, full curve]"
16,CSCC(=O)NC1CCCc2c1cnn2-c1cc(F)cc(F)c1 (configuration not stated),"inconclusive [inhibitor, full curve, poor fit]"
17,c1ccc(OCCn2c(-c3ccco3)nc3ccccc32)cc1,inactive
18,CCC(=O)N1CCCc2cc(S(=O)(=O)N3CCN(c4ccccc4F)CC3)ccc21,"inconclusive [inhibitor, full curve, poor fit]"
19,O=C(c1cc2c(s1)CCCC2)N1CCN(S(=O)(=O)c2ccccc2C(F)(F)F)CC1,inactive
20,CCN(C(=O)CSc1nc(C)nc2sc(C)c(C)c12)C1CCS(=O)(=O)C1 (configuration not stated),"inconclusive [inhibitor, full curve, poor fit]"
21,Cn1c(OCc2ccco2)nc2c1c(=O)n(Cc1ccc(Cl)c(Cl)c1)c(=O)n2C,"inconclusive [inhibitor, full curve, poor fit]"

# From PubChem BioAssay AID485294 (National Center for Advancing Translational Sciences (NCATS), 2010)
